From PubChem BioAssay AID1476 (National Center for Advancing Translational Sciences (NCATS), 2009)
The campaign covered roughly 200,000 compounds. About 4,500 (2.2%) were called active. The shares of active, inactive and inconclusive entries below differ from those in the screen. Calls follow the shape of the dose curve; as a rule, active = well fitted inhibition curve with a large enough effect; inconclusive = small, poorly fitted or top-dose-only effect, or effect the other way; inactive = flat fitted curve, though single readings scatter. A potency beside an inconclusive call is a rough fit, not a confirmed value.
Also: nearly all actives have a fitted effect of over 40% in size.
Potency is read from the fitted curve at half-maximal effect; tags tell the direction and shape of the fitted curve.

These compounds were tested against Cruzipain (Trypanosoma cruzi) (UniProt P25779) (assay: qHTS Assay for Promiscuous and Specific Inhibitors of Cruzain (without detergent)). Details: purified cruzain, Z-FR-AMC fluorescence, no detergent.
UniProt P25779, sequence (P25779 whole entry, looked up): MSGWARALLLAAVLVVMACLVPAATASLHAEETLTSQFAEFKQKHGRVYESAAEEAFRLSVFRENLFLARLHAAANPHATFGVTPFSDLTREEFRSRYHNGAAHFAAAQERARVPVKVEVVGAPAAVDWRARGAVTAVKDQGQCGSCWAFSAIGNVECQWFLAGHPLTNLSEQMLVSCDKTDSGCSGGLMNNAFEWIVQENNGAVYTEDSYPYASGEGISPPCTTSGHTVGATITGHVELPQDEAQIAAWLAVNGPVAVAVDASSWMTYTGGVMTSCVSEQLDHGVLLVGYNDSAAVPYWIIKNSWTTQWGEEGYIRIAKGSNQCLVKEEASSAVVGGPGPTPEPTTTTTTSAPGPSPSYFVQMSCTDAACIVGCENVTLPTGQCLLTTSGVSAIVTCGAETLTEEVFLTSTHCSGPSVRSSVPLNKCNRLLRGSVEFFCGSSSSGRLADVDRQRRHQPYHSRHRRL
Description: Cruzain is a cysteine protease from the tropical parasite Trypanosoma cruzi. Dual qHTS experiment was performed against the NCGC compound collection in order to 1) identify novel inhibitors of the enzyme and 2) profile the compound collection for promiscuous inhibitors operating via colloidal aggregation (by performing detergent-free and detergent-containing comparison screens). Cruzain was assayed by the use of fluorogenic coumarin-based substrate Z-FR-AMC: proteolytic cleavage releases AMC, whose fluorescence is measured at 360 nm excitation and 450 nm emission. Purified cruzain was supplied by the labs of Prof. James McKerrow and Brian Shoichet, UC San Francisco.
This assay had 0.00005% Triton X-100 concentration. See also releated assay "qHTS Assay for Promiscuous and Specific Inhibitors of Cruzain (with detergent)" with 0.01% Triton X-100.
See following references for additional details:
Assay Provider: Shoichet, Brian; University of California, San Fancisco
Screening Center PI: Austin, C.P.
Screening Center: NIH Chemical Genomics Center [NCGC]
Buffer: 100 mM Sodium Acetate, pH 5.5, 5 mM DTT, Triton X-100 concentration: 0.01%.
Buffer in columns 3 and 4 as negative control (no enzyme).
Substrate solution: 2 uM final concentration of Z-FR-AMC (catalog number I-1160, Bachem) dispensed throughout the plate.
Enzyme: 1.5 nM Cruzain final concentration in columns 1, 2, 5-48. Column 1 is neutral (100% activity). Column 2 contained titration of covalent inhibitor K11777, starting concentration 1 mM, then 1:2 dilution in duplicate).
Three uL of enzyme or buffer were dispensed to 1536-well Greiner black solid bottom plates. Compounds and controls (23 nL) were transferred via Kalypsys PinTool. The plates were incubated for 15 min at room temperature, and then 1 uL of substrate solution was added to start the reaction. The plates were immediately transferred to and read 4 times every 30 seconds for 2 min on ViewLux High-throughput CCD imager (Perkin-Elmer) using 360 nm excitation and 450 nm emission fluorescence protocol. The fluorescence intensity difference between the third and the first time points (time lapse of 60 seconds) was used to compute reaction progress.
In the case of `CCN(C(=O)CSc1nc2ccccc2nc1Cc1ccccc1OC)c1ccccc1`, the max response, negative = inhibition is reported as inactive: -13.5%.
With `CC(C)CC(NC(=O)c1ccc(Cl)cc1)C(=O)OCC(=O)c1ccc2c(c1)NC(=O)CO2` (centres undefined) the Potency was active: 20 µM.
With `CCCC12CN3CC(CCC)(CN(C1)C3c1c[nH]c3ccc(OC)cc13)C2=O` (centres undefined) the max response, negative = inhibition was inactive: 15.7%.
For `O=C(Nc1ccc(Cl)cc1)c1ccc2c(c1)N(Cc1ccccc1)CCS2`, the Potency was active: 31.6 µM.
`CC(C)c1ccc(NC(=O)CN2C(=O)C3(SCC(=O)N3c3ccc(F)cc3)c3ccccc32)cc1` (centres undefined) was tested, and the Potency was inconclusive: 39.8 µM [inhibitor, single point].
In the case of `Cc1ccc(N2CCn3c2nc2c3c(=O)n(Cc3cccc(Cl)c3)c(=O)n2C)cc1C`, the max response, negative = inhibition is reported as inactive: -5.77%.
With `COc1ccc2cc(CN(CCc3ccccc3)Cc3nnnn3CC3CCCO3)c(=O)[nH]c2c1` (centres undefined) the Potency was inconclusive: 31.6 µM [activator, partial curve].
`COc1ccc(NC(=O)Cn2c(=O)n(Cc3ccco3)c(=O)c3sc4ccccc4c32)cc1Cl` was tested, and the Potency was active: 25.1 µM.
In the case of `Cc1cccc(NC(=O)CN2C(=O)C(c3ccccc3)=NC23CCC(C)CC3)c1` (centres undefined), the Potency is reported as inconclusive: 39.8 µM [inhibitor, single point].
With `CC(=O)c1cccc(-n2c(=O)c3c4c(sc3n(Cc3cccc(C)c3)c2=O)CN(C(C)=O)CC4)c1` the Potency was inconclusive: 7.94 µM [activator, single point].
With `Cc1cc(C)n(CCc2nc3c4ccccc4nc(N4CCN(c5cccc(C)c5C)CC4)n3n2)n1` the max response, negative = inhibition was inactive: 8.05%.
In the case of `CCOC(=O)c1nnn(CC(=O)N2N=C(c3cccc4ccccc34)CC2c2ccccc2)c1C(=O)OCC` (centres undefined), the Potency is reported as inconclusive: 39.8 µM [inhibitor, single point].
`COc1ccc(-n2nc3cc(C)c(NC(=O)c4ccc(-c5ccc(Br)cc5)o4)cc3n2)cc1` was tested, and the max response, negative = inhibition was inactive: -1.7%.
In the case of `COc1cc(OC)cc(C(=O)Nc2cc3c(cc2N2CCOCC2)n(C)c(=O)n3C)c1`, the max response, negative = inhibition is reported as inactive: 10.7%.
For `CSc1nc2n(n1)C(c1cccc(F)c1)C(C(=O)Nc1ccc(C)cc1C)=C(C)N2` (centres undefined), the Potency was active: 10 µM.
`CCOc1ccc(C2=NC(c3cccs3)=Nc3ccc(CC)cc3N2)cc1OCC` was tested, and the max response, negative = inhibition was inactive: -0.96%.
With `O=C(NCCN1CCCC1)c1ccc(Cn2c(=S)[nH]c3cc4c(cc3c2=O)OCO4)cc1` the Potency was inconclusive: 31.6 µM [inhibitor, single point].
With `COC(=O)CN1C(=O)C(C)(C)c2cc(S(=O)(=O)Nc3ccc(Br)cc3F)ccc21` the Potency was inconclusive: 39.8 µM [activator, single point].
`CCn1cc2nc(SCC(=O)Nc3ccc(C)cc3)n(Cc3ccc(C)cc3)c(=O)c2n1` was tested, and the Potency was inconclusive: 39.8 µM [activator, single point].
With `COc1ccc(CCNC(=O)c2cc3n(n2)CCCN(Cc2ccc(C)cc2)C3=O)cc1OC` the Potency was inconclusive: 20 µM [activator, single point].
`Cc1cc(C)cc(-n2cnc3cc(C(=O)NC4CCCCCC4)ccc32)c1` was tested, and the max response, negative = inhibition was inactive: 5.72%.
With `Cc1csc(NC(=O)c2c(O)c3c(n(CC(C)C)c2=O)CCCC3)n1` the Potency was inconclusive: 39.8 µM [activator, single point].
For `O=C(C(=O)N1CCc2ccccc2C1)c1cn(CC(=O)N2CCOCC2)c2ccccc12`, the Potency was inconclusive: 31.6 µM [activator, single point].
For `CC(=O)C1=C(c2ccccc2)N(C(C)=O)n2c(nnc2C2CCCCC2)S1`, the max response, negative = inhibition was inactive: 6.14%.
In the case of `CCCC1=Nc2cc(C(=O)NCc3ccco3)ccc2Sc2ccccc21`, the max response, negative = inhibition is reported as inactive: -12.6%.
`CC1CCc2cc(F)ccc2N1C(=O)c1cc2nc(-c3ccco3)cc(C(F)(F)F)n2n1` (centres undefined) was tested, and the Potency was inconclusive: 15.8 µM [activator, partial curve, poor fit].
For `Cc1noc(C)c1C(=O)N1CCC2(CCN(Cc3ccncc3)CC2)CC1`, the max response, negative = inhibition was inactive: -2.04%.
In the case of `Cc1ccc(NC(=O)c2cc(N3CCOCC3)nc3ccccc23)cc1`, the Potency is reported as inconclusive: 1.58 µM [inhibitor, single point].
With `CCN(CC)c1ccc(C2N(C(=O)N3CCOCC3)CCN2S(=O)(=O)c2ccc(C)cc2)cc1` (centres undefined) the Potency was inconclusive: 39.8 µM [activator, single point].
In the case of `COc1cccc(Cn2c(=O)n(-c3cccc(Cl)c3)c(=O)c3c4c(sc32)CN(C(C)=O)CC4)c1`, the Potency is reported as inconclusive: 25.1 µM [activator, partial curve].
`CN1CCN(c2ccc([N+](=O)[O-])c(N/N=C3\CN4CCC3CC4)c2)CC1` was tested, and the Potency was inconclusive: 39.8 µM [inhibitor, single point].
In the case of `O=C(Nc1nccs1)c1cc2sccc2n1Cc1ccc(Cl)cc1`, the Potency is reported as inconclusive: 39.8 µM [inhibitor, single point].
In the case of `COC(=O)C(Cc1ccccc1)NC(=O)COc1ccc(C(C)(C)C)cc1` (centres undefined), the Potency is reported as inconclusive: 31.6 µM [activator, single point].
In the case of `COCCN=C1OC(=O)N2C(=O)C3=C4C(C[C@H]5C(=O)N(CC(=O)OC)C(=O)[C@H]5[C@H]4[C@@]12Cc1ccccc1)[C@H]1C(=O)N(CC(=O)OC)C(=O)[C@H]1[C@H]3C` (some centres undefined), the Potency is reported as inconclusive: 39.8 µM [activator, single point].
In the case of `C/C(=N\NC(=O)c1nn(C)c(C)c1Br)c1ccc(NC(=O)c2ccoc2C)cc1`, the Potency is reported as inconclusive: 15.8 µM [activator, partial curve].
`CCOC(=O)N1CCN(C(=O)C2CCN(c3ncnc4c3sc3cccc(F)c34)CC2)CC1` was tested, and the Potency was inconclusive: 31.6 µM [activator, single point].
`Cc1ccc(-n2c(C)cc(/C=N/NC(=O)Cn3c4ccccc4c(=O)c4ccccc43)c2C)cc1` was tested, and the Potency was inconclusive: 15.8 µM [inhibitor, partial curve].
With `CCOC(=O)N1CCc2c(sc3c2c(=O)n(Cc2ccccc2)c(=O)n3Cc2cccc(C)c2)C1` the Potency was inconclusive: 31.6 µM [inhibitor, partial curve, poor fit].
With `CCCCCCCC1=CC2=C(Cl)C(=O)C(C)(OC(C)=O)C(=O)C2=CN1C` (centres undefined) the max response, negative = inhibition was inactive: 2.72%.
